Data from article PMC4336329 (PLoS ONE, 2015).
Hit rate of the full screen: of about 310,000 compounds, about 2,200 (0.71%) showed an effect of 50% or more. Effects have a minus sign here. The list shows a part of the results.

Molecular target: human ether-à-go-go-related gene (hERG) potassium channel (human, UniProt Q12809)
Test: primary screen, population patch clamp on CHO cells stably expressing hERG

Chain of human ether-à-go-go-related gene (hERG) potassium channel (Q12809 whole entry, looked up): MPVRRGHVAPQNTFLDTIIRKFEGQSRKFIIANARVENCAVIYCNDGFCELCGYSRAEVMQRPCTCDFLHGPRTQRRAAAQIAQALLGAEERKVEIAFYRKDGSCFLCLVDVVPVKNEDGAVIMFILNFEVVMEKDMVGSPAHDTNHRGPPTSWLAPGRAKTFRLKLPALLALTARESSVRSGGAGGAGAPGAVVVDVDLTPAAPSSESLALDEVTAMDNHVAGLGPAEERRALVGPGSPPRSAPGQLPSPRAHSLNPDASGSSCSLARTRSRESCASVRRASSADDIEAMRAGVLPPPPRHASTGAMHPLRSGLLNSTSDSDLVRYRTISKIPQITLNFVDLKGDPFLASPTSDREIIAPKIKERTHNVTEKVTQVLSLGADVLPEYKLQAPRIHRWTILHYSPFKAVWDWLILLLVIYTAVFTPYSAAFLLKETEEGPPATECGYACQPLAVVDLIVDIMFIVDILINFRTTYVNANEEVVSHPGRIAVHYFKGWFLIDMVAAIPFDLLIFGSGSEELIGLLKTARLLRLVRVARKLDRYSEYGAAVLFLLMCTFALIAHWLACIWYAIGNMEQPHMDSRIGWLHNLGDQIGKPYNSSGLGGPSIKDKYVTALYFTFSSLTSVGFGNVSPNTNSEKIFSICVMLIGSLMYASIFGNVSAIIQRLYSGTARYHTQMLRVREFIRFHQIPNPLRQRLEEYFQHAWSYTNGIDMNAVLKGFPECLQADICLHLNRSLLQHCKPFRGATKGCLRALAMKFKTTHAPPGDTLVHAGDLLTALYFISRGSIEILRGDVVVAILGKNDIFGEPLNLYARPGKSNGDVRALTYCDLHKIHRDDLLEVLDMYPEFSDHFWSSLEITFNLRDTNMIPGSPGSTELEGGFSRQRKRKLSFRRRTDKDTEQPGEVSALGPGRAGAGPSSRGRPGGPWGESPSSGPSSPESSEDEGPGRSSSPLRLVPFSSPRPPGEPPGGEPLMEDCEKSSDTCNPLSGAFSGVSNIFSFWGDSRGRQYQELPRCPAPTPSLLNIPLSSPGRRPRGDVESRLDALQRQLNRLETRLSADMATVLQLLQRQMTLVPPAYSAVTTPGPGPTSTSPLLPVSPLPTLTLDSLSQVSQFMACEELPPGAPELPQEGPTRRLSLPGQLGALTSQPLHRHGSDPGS

| SMILES | hERG current change (%, negative = inhibition) at 1uM |
| --- | --- |
| Cc1cccc(NC(=O)CSc2ncnc3sc(C)cc23)c1 | 13.4% |
| Cc1cc(NC(=O)c2cc(-c3ccc4c(c3)OCO4)on2)n(-c2ccccc2)n1 | 10.4% |
| O=C(O)CCc1ccc(-c2ccc(F)cc2)n1CC1CCCO1 (stereo not shown) | -17.8% |
| CCCCCCn1c(O)c(/C=N/N2CCCCCC2)c(=O)[nH]c1=O | 6.63% |
| CCOC(=O)C1CCCN(C(=O)CSc2ccc(Br)cc2)C1 (stereo not shown) | -3.22% |
| CN(C)CCOC(=O)CCCCCCCCC(=O)OCCN(C)C.Cl | 9.14% |
| COc1ccc(C(=O)O)cc1S(=O)(=O)NC(C)(C)C | 19.1% |
| CCCC(=O)NNc1c2ccccc2nc2ccccc12 | 9.1% |
| CCOC(=O)C1=C(N)Oc2ccc3ccccc3c2C1c1ccc(O)cc1 (stereo not shown) | 2.28% |
| CCOC(=O)Nc1sc(C(=O)N(C)C)c(C)c1C(=O)OCC | 5.78% |
| CN1/C(=C/C=N/NC(=O)c2ccc([N+](=O)[O-])cc2)C(C)(C)c2ccccc21 | 1.35% |
| COc1ccc(NC2=CC(c3ccc(F)cc3)N(c3ccc(OC)cc3)C2=O)cc1 (stereo not shown) | 2.4% |
| COCCCNC(=O)CSc1nc2ccccc2c(=O)n1CCC(=O)NCCc1ccc(OC)c(OC)c1 | 8.34% |
| COc1ccccc1N1CC(C(=O)Nc2nnc(SCC(=O)NCC3CCCO3)s2)CC1=O (stereo not shown) | 10.3% |
| COc1cc(CN2CCN(CCOCCO)CC2)cc(OC)c1OC | 3.59% |
| Cc1cnc(C(=O)NC2CC(C)(C)Cc3c2cnn3-c2cccc(F)c2)cn1 (stereo not shown) | 3.82% |
| CN(CCOc1ccc(Cl)cc1)C(=O)c1ccc2c(=O)n3c(nc2c1)CCC3 | -0.931% |
| CN(C)S(=O)(=O)c1cccc(NC(=S)Nc2ccc3cn[nH]c3c2)c1 | 6.82% |
| Cc1ccccc1C(=O)NC(=S)NCC(=O)c1ccccc1 | 3.72% |
| C=CCN(CC=C)S(=O)(=O)c1ccc(NC(=S)NC(=O)/C=C/c2cccc3ccccc23)cc1 | 3.67% |

| SMILES | hERG current change (%, negative = inhibition) at 1uM |
| --- | --- |
| O=C(CSc1nnc(-c2ccc(S(=O)(=O)N3CCCC3)cc2)o1)NCc1ccco1 | 7.71% |
| O=C(C1CCCO1)N1CCN(C(=S)Nc2ccc(F)cc2)CC1 (stereo not shown) | -4.91% |
| COc1ccc(C(C(=O)NC2CCCC2)N(C(=O)c2csnn2)C2CC2)cc1 (stereo not shown) | -5.74% |
| O=C(CCCSc1nc2ccccc2c(=O)[nH]1)c1ccc(F)cc1 | 2.7% |
| CCOC(=O)CCc1nc2ccccc2[nH]c1=O | 4.53% |
| COC(=O)C1CCN(S(=O)(=O)c2ccc(Br)s2)CC1 | 7.8% |
| CC1CCCCC1NC(=O)NC(=O)COC(=O)c1cncc(Br)c1 (stereo not shown) | 4.7% |
| OC(COc1ccc2ccccc2c1)CN1CCN(c2ccc(F)cc2)CC1 (stereo not shown) | -1.08% |
| Cc1ccc(NC(=O)c2c(O)c3ccccc3n(C)c2=O)nc1 | -3.31% |
| COc1ccc(Cl)cc1NC(=O)CNC(c1ccccc1)c1ccccc1 | 9.93% |
| CC(C)(C)c1nnc(NS(C)(=O)=O)s1 | 8.87% |
| CCN1C(=O)N[C@@H](c2ccco2)C(C(C)=O)=C1C | 17.6% |
| CCOC(=O)c1c(SC)nc(SC)c2c1CCC2 | 11.4% |
| O=C(NC1CCCCC1)C(c1cccs1)N(C(=O)Cc1c[nH]c2ccccc12)c1ccc(F)cc1 (stereo not shown) | 10.4% |
| Cc1nccn1CCC1CCCCN1C(=O)CCc1nnc(-c2ccsc2)o1 (stereo not shown) | 12.6% |
| COc1ccccc1CN1CC(C(=O)NCCn2ccc(C)n2)CCC1=O (stereo not shown) | 8.52% |
| O=C(O)CC1SC(=Nc2ccccc2)N(c2ccccc2)C1=O (stereo not shown) | 12.1% |
| COc1ccc(CN2CCNC(=O)C2CC(=O)O)c(OC)c1 (stereo not shown) | 10.5% |
| O=S(=O)(c1ccc(=S)[nH]c1)N1CCCCC1 | 16.8% |
| NC(=O)c1nsc(C(=O)N(CC(=O)NC2CCCC2)Cc2ccc3c(c2)OCO3)c1N | 7.32% |

| SMILES | hERG current change (%, negative = inhibition) at 1uM |
| --- | --- |
| CC(Sc1nnc(-c2ccc(O)cc2)o1)C(=O)Nc1cccc2ccccc12 (stereo not shown) | 7.58% |
| CN(Cc1ccccc1)C(=O)c1cc(-c2ccc(Br)cc2)on1 | 8.41% |
| O=C1c2ccccc2OCOc2ccccc21 | -0.41% |
| CC(=O)Nc1cc2c(cc1NC(=O)Cn1nc(-c3ccccc3F)ccc1=O)OCCO2 | 1.56% |
| CC(=O)Nc1cccc(-n2nnc(SCC(=O)Nc3ccc(F)c(Cl)c3)n2)c1 | 19.5% |
| CCCn1c(SCC(=O)Nc2c(C)cccc2C)nnc1C(C)C | 5.06% |
| COc1ccccc1CNC(=O)CSC(=S)N1CCCC1 | 3.59% |
| C=CCc1cccc2cc(C(=O)NCc3ccc(C(=O)OCC)o3)c(=O)oc12 | -0.19% |
| CCOc1cccc(NC(=O)c2ccc(S(=O)(=O)N(C)C)cc2)c1 | 7.76% |
| O=C(NC1CC1)c1cc(=O)c2ccccc2o1 | 2.76% |
| COc1ccc(C2CC(c3ccc(F)cc3)n3nc(NS(C)(=O)=O)nc3N2)cc1 (stereo not shown) | 15.8% |
| CCCc1c(C(=O)N/N=C/c2cccs2)nnn1-c1nonc1N | 13.5% |
| Cc1cc(C(=O)COC(=O)C2=COCCO2)c(C)n1-c1ccc2c(c1)OCO2 | 8.48% |
| COc1ccc(C(=O)NC(=S)NNC(=O)CNC(=O)C2CCCCC2)cc1 | 11.1% |
| Cc1cc(C)cc(NC(=O)CN2CCC(NC(=O)c3cccc(F)c3)CC2)c1 | 4.29% |
| Nc1ncnc2nc(SCCC(=O)O)[nH]c12 | 7.82% |
| CCCCn1c(N)c(N(CCOC)C(=O)c2cnccn2)c(=O)[nH]c1=O | 15% |
| Nc1c(C(=O)Nc2ccc(S(=O)(=O)N3CCCC3)cc2)sc2nc3ccc(OC(F)(F)F)cc3cc12 | 12.3% |
